# Data from PubChem BioAssay AID686978 (National Center for Advancing Translational Sciences (NCATS), 2013).
# Several values for one entry are separate records, joined by “and”; a condition that tells them apart may be missing. Identical values can stand only once. The campaign covered roughly 420,000 compounds. About 64,000 (15%) were called active. The shares of active, inactive and inconclusive entries below differ from those in the screen. The call rests on the fitted dose curve; in most records, active means well fitted inhibition curve with a large enough effect; inconclusive means small, poorly fitted or top-dose-only effect; inactive means flat fitted curve, though single readings scatter. Potencies beside an inconclusive call are fits to weak or partial responses and may not hold up.
# Assay: qHTS for Inhibitors of human tyrosyl-DNA phosphodiesterase 1 (TDP1): qHTS in cells in absence of CPT; further: nearly all actives have a fitted effect of over 55% in size
# Conditions: DT40 Tdp1-/- hTDP1 cells, no CPT, ATP luminescence, 48 h; activity change, negative = growth inhibition: at 46.2 µM (top of the series) unless noted
# Procedure, shortened: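 A cellular qHTS used chicken DT40 cells lacking endogenous Tdp1 but carrying stably transfected human TDP1. Compounds were applied without camptothecin, and cell growth kinetics were judged by ATP-dependent luminescence after ≥48 hr.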
# On the % scale 0 is the no-effect control and ±100 the full control effect; potency means the concentration at half of the fitted maximal effect; tags describe the fitted curve by direction and shape.
Compound,Potency,"activity change, negative = growth inhibition"
O=C(c1ccccc1)c1cc(Cl)ccc1N1C(=O)C=CC1=O,active: 1.16 µM,
CCOc1ccc(NC(=S)N(CCCN2CCCC2)Cc2cccn2Cc2ccc(Cl)cc2)cc1,"inconclusive: 29.1 µM [inhibitor, single point]",
CC(=O)/C=C/c1ccccc1Oc1c(F)c(F)nc(F)c1F,active: 25.9 µM,
Cc1c(N2CCCC2)cc2c(c1NC(=O)c1ccccc1Cl)C(C)(C)CC2(C)C,active: 14.6 µM,
COc1cc(C)c(S(=O)(=O)Nc2ccccc2F)cc1C,"inconclusive: 16.4 µM [inhibitor, single point]",
Cc1nc(C)c(-c2csc(Nc3ccc(S(N)(=O)=O)cc3)n2)s1,"inconclusive: 16.4 µM [inhibitor, partial curve, poor fit]",
O=C(NCc1ccc2c(c1)OCO2)C1CC(=O)N(CCc2ccc(F)cc2)C1 (stereo not drawn),,inactive: 2.41%
COc1cccc(-c2ccc3c(N)c(C(=O)NCc4ccc(Cl)cc4)sc3n2)c1,"inconclusive: 23.1 µM [inhibitor, single point]",
COc1ccc(OC)c(-c2cc(C(=O)NC(C)c3ccccc3)no2)c1 (stereo not drawn),active: 4.11 µM,
Cc1ccc(C)c(S(=O)(=O)C(C#N)c2nc3ccccc3nc2N2CC(C)OC(C)C2)c1 (stereo not drawn),"inconclusive: 25.9 µM [inhibitor, single point]",
Cc1cc(C)cc(COn2ccnc2)c1,"inconclusive: 6.51 µM [inhibitor, single point]",
O=[N+]([O-])c1ccc2c(c1)C(N1CCOCC1)/C(=C/C1(O)CCCCC1)O2 (stereo not drawn),"inconclusive: 23.1 µM [inhibitor, partial curve]",
COc1ccc(NC(=O)Cn2nnc(-c3ccccc3)c2COc2ccc3ccccc3c2)cn1,active: 23.1 µM,
Cc1nc2c(C(=O)NCCc3ccccc3)c[nH]n2c(=O)c1Cl,,inactive: -6.65%
Cc1nc2ccc(F)cc2cc1C(=O)Nc1ccc(Cl)c(Cl)c1,"inconclusive: 9.2 µM [inhibitor, partial curve, poor fit]",
O=C(Nc1ccccc1)c1cccc(S(=O)(=O)Nc2cccc(F)c2)c1,active: 25.9 µM,
O=C(Nc1cc(C(F)(F)F)ccc1N1CCOCC1)c1ccncc1,"inconclusive: 20.6 µM [inhibitor, single point]",
Cc1ccc(N2C(=O)NC(NC(=O)c3ccc(Cl)cc3)(C(F)(F)F)C2=O)cc1 (stereo not drawn),"inconclusive: 16.4 µM [inhibitor, partial curve, poor fit]",
O=C(COc1cccc(Br)c1)NN=C1c2ccccc2-c2ccccc21,"inconclusive: 20.6 µM [inhibitor, single point]",
CC(=O)N/N=C(\N)c1nonc1N,,inactive: -7.23%
CCOC(=O)C[C@H]1c2cc(F)ccc2S(=O)(=O)N1C(C)(C)C,"inconclusive: 25.1 µM [inhibitor, single point] and inconclusive: 13 µM [inhibitor, partial curve]",
Cc1ccc(C(=O)NCCC(=O)N2CCC3(CC2)NCCc2[nH]cnc23)cc1C,,inactive: 10.3%
CC(C)c1ccc(C2=C(O)c3ccccc3C(=O)C2=O)cc1,"inconclusive: 14.6 µM [inhibitor, partial curve, poor fit]",
CC(C)(Oc1ccc(Cl)cc1)C(=O)NCc1n[nH]c(=O)c2ccccc12,"inconclusive: 18.4 µM [inhibitor, single point]",
O=[N+]([O-])c1ccc2c(c1)C(N1CCOCC1)/C(=C/COc1ccc(Cl)cc1Cl)O2 (stereo not drawn),"inconclusive: 25.9 µM [inhibitor, single point]",

Compound,Potency,"activity change, negative = growth inhibition"
COC(=O)c1[nH]c2cc(OC)ccc2c1NC(=O)CCN1CCN(Cc2ccc3c(c2)OCO3)CC1,"inconclusive: 23.1 µM [inhibitor, partial curve]",
Cc1cccc(N2CCN(C3(c4ccccc4)C(=O)c4ccccc4C3=O)CC2)c1C,,inactive: -16.3%
Cc1ccc(OCC(=O)N2CCc3ccccc3C2)cc1C,"inconclusive: 29.1 µM [inhibitor, single point]",
CCCC(C(=O)NC(C)(C)C)N(CC1CCCO1)C(=O)CNS(=O)(=O)c1ccc(F)cc1 (stereo not drawn),,inactive: -10.1%
COc1cc(/C=N/NC(=O)c2ccoc2C)cc(OC)c1OC,active: 12.6 µM,
CN(Cc1ccccc1)C(=O)c1ccc2c(c1)OCO2,,inactive: -5.55%
C=Cc1ccc(C(=O)N2CCCC(CCC(=O)N3CCN(c4ccccn4)CC3)C2)cc1 (stereo not drawn),,inactive: -9.1%
O=C(Nc1ccc(Br)cc1Cl)c1cnccn1,,inactive: -20.8%
Cc1ccc2onc(CC(=O)N(C)c3ccccc3)c2c1,"inconclusive: 18.4 µM [inhibitor, single point]",
Cc1ccc(C)c(CSC2=NN3CCCC(=O)N=C3S2)c1,active: 16.4 µM,
COc1ccccc1CNC(=O)C1CCCN(S(=O)(=O)c2cccc3cccnc23)C1 (stereo not drawn),"inconclusive: 14.6 µM [inhibitor, single point]",
COc1cc(OC)c(N(C)S(=O)(=O)c2cccc(C(=O)Nc3nccs3)c2)cc1Cl,active: 18.4 µM,
CCC(=O)OCC(=O)Nc1ccc(OC)cc1[N+](=O)[O-],,inactive: -13.8%
CC(C(=O)c1ccccc1)[n+]1ccc(Cl)c2ccc(Cl)cc21 (stereo not drawn),"inconclusive: 5.62 µM [inhibitor, partial curve]",
CC(C)CCNC(=O)CCn1c(=S)oc2ccccc21,,inactive: -11.1%
C=CC[C@]12CC=CC(=O)[C@@]1(O)O[C@H](c1ccc(OC)c(OC)c1)[C@H]2C,active: 5.8 µM,
O=C(NN=Cc1c(O)ccc2ccccc12)C1CC1,active: 5.17 µM,
CC(=O)N[C@@H](CCC(N)=O)C(=O)O,,inactive: -19.7%
CCCCOC(=O)c1ccc(NC(=O)C(=O)NCc2ccco2)cc1,,inactive: -24.3%
C/C(=C\[C@@H](NP(=O)(c1ccccc1)c1ccccc1)c1ccccc1)CO[Si](c1ccccc1)(c1ccccc1)C(C)(C)C,"inconclusive: 29.1 µM [inhibitor, single point]",
Cc1cnc(C(=O)Nc2ccc(-n3cnnn3)cc2)cn1,"inconclusive: 29.1 µM [inhibitor, single point]",
COc1ccc(CCNc2ccc(C(CC(N)=O)NC(=O)c3ccccc3)cc2[N+](=O)[O-])cc1 (stereo not drawn),"inconclusive: 4.11 µM [inhibitor, full curve]",
CCOc1ccc(S(=O)(=O)NNS(=O)(=O)c2ccc(C)cc2C)cc1,,inactive: 3.18%
CC(C)Cn1c(N)c(C(=O)COC(=O)c2ccc(O)cc2)c(=O)n(C)c1=O,"inconclusive: 25.9 µM [inhibitor, single point]",
CCNc1ccc(C(=O)OCC(=O)N(Cc2ccccc2)C(C)(C)C)cc1[N+](=O)[O-],"inconclusive: 18.4 µM [inhibitor, single point]",

Compound,Potency,"activity change, negative = growth inhibition"
CC1CN(c2oc(Cc3cccc4ccccc34)nc2C#N)CC(C)O1 (stereo not drawn),"inconclusive: 9.2 µM [inhibitor, partial curve, poor fit]",
CCc1nnc(NC(=O)C2CCCN2C(=O)Nc2ccccc2)s1 (stereo not drawn),,inactive: 12.2%
CCOC(=O)CCNc1n[nH]c(=O)[nH]c1=O,,inactive: 0.48%
Cc1cc(C)cc(Nc2nc3c([nH]2)c(=O)n(C)c(=O)n3C)c1,"inconclusive: 18.4 µM [inhibitor, single point]",
COCn1ccnc1C(=O)c1ccco1,,inactive: -0.475%
COc1ccc(NC(=O)Cc2c(C)n(C(=O)c3ccc(Cl)cc3)c3ccc(OC)cc23)cc1,,inactive: -28.7%
CSc1cccc(NC(=O)C2CCCN2S(=O)(=O)c2ccc3c(c2)CCC(=O)N3)c1 (stereo not drawn),"inconclusive: 18.4 µM [inhibitor, single point]",
O=C(CCc1nc2cccnc2n1Cc1cccs1)Nc1cccc(Cl)c1,"inconclusive: 23.1 µM [inhibitor, single point]",
CN(C)S(=O)(=O)c1ccc(C(=O)Nc2ccnn2C2CCCCC2)cc1,active: 16.4 µM,
CCOc1ccc(/C=N/NC(=O)c2[nH]c3ccc(C)cc3c2C)cc1,,inactive: -26.8%
O=C(/C=C/c1ccccn1)c1ccc(Br)cc1O,active: 18.4 µM,
COc1cc(O)c2c(=O)c(O)c(-c3ccc(O)c(O)c3)oc2c1,,inactive: -7.7%
CCOCCn1ccc2c(OCC(=O)Nc3ccc(OC)cc3OC)cccc2c1=O,,inconclusive: -34.5% [inhibitor]
COc1ccccc1CNC(=O)c1ccc2nc(-c3ccccc3)c(-c3ccccc3)nc2c1,active: 18.4 µM,
C#CCOCCOCCOCCNc1nc(N2CCN(C(=O)[C@H](Cc3cc4ccccc4[nH]3)n3cc([C@@H](N)CC(C)C)nn3)CC2)nc(N2CCN(C(=O)[C@H](Cc3cc4ccccc4[nH]3)n3cc([C@@H](N)CC(C)C)nn3)CC2)n1,"inconclusive: 29.1 µM [inhibitor, single point]",
CCn1cc(C(=O)NCc2ccc(C)cc2)c(=O)c2cc(S(=O)(=O)N3CCCCCC3)ccc21,active: 20.6 µM,
COc1ccc(NC(=O)C2CCN(c3nc(C)nc4c3CCC4)CC2)cc1,active: 16.4 µM,
NC(COCc1ccccc1)c1csc(Nc2ncccn2)n1 (stereo not drawn),"inconclusive: 29.1 µM [inhibitor, single point]",
CCOc1ccc(NC(=O)C2CCCN(S(=O)(=O)c3c(C)nn(C)c3C)C2)cc1 (stereo not drawn),"inconclusive: 20.6 µM [inhibitor, single point]",
c1cc(N2CCCCC2)nc(N2CCCCC2)n1,"inconclusive: 23.1 µM [inhibitor, single point]",
CC(C)CNc1nc(Oc2ccc(OCC(N)=O)nn2)nc(N2CCOCC2)n1,,inactive: -5.28%
C/C=C/C=N/NC(=O)c1ccncc1,"inconclusive: 33.5 µM [inhibitor, single point]",
CS(=O)(=O)C1=NN2C(=N)/C(=C\c3ccc(OCCOc4ccccc4)cc3)C(=O)N=C2S1,"inconclusive: 29.1 µM [inhibitor, single point]",
